In all, about 33,000 sequences were measured (“E-score (-0.5 to 0.5)”: median about -0.012, highest 2% from about 0.27 on). Some of the results follow.
biological target: T1, Vhr1 (UniProt P40522); assay: PBM E-score (8-mer binding enrichment) (E-score (-0.5 to 0.5)); higher = stronger / more preferred TF binding; most listed sequences are background and not binding sites; details: protein concentration: 200 nM; construct: GST-full length
T1 sequence: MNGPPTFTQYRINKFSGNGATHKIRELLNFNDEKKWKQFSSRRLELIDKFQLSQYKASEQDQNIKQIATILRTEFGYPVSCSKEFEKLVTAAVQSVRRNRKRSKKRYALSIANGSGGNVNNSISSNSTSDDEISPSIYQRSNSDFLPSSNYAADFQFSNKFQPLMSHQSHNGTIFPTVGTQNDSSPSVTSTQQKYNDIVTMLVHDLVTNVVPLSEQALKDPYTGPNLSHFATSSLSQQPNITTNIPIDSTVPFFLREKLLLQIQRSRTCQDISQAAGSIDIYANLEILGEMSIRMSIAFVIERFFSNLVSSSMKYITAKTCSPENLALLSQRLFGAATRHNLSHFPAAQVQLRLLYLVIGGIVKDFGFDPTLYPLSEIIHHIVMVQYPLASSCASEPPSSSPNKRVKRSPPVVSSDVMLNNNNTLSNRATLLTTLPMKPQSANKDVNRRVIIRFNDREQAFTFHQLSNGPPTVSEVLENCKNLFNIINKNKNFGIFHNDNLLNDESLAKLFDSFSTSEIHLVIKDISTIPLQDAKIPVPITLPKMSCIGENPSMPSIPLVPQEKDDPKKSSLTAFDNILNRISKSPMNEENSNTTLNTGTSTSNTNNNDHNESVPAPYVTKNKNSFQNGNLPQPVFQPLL
Description: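 Universal 'all 10-mer' protein binding microarrays (Agilent AMADID 015681) probed with GST-tagged S. cerevisiae TFs (full-length or DBD) made by in vitro transcription/translation (PURExpress), about 100-200 nM. Bound TF was detected with fluorescent anti-GST. Each ungapped 8-mer (which stands for itself and its reverse complement) is scored by the PBM enrichment score (E-score), a modified Wilcoxon-Mann-Whitney statistic from -0.5 to +0.5, computed with the Universal PBM Analysis Suite. Scale: above 0.35 generally sequence-specific binding.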

| Sequence | PBM E-score |
| --- | --- |
| AAGGACCG | -0.251 |
| AGCGTCTC | -0.169 |
| CATTCAAG | -0.0791 |
| CTACTTAA | -0.204 |
| AGTCCTAG | -0.205 |
| CCTCCGTA | 0.0807 |
| GAGTATGC | 0.0702 |
| TGGACTAA | 0.0529 |
| ACACACGT | 0.0925 |
| AGCAAAAA | -0.167 |
| GGATGACA | -0.053 |
| ATCCAAGG | -0.0179 |
| CTTAGTTA | 0.121 |
| ACAGTCGG | 0.165 |
| TAACACGA | 0.212 |
| AGTCCTAA | 0.0704 |
| ACTCTGTG | 0.0323 |
| CCACATCA | 0.157 |
| AACCCCGG | -0.0703 |
| ATGGATTC | 0.112 |
| ACCCCTGA | 0.143 |
| AAGGTCAT | -0.0525 |
| CGGTGCCC | 0.0865 |
| AATTGAGT | 0.272 |
| CTGTAACA | 0.024 |

| Sequence | PBM E-score |
| --- | --- |
| AAAAAAGT | -0.00293 |
| ACTATCGG | 0.0675 |
| CAATGTCA | 0.0787 |
| CTTCCGTA | -0.0944 |
| ACGTAATC | 0.203 |
| TCACGGCA | -0.0393 |
| CCGAGGCG | 0.0619 |
| GCGGAAGC | -0.177 |
| AGTTGGCA | 0.0337 |
| ACTTCACT | -0.204 |
| ATTTAAAG | -0.0479 |
| AATAAGGA | -0.159 |
| GCAATGAA | 0.0166 |
| GTGATAGA | -0.0432 |
| CATTCCAC | 0.0312 |
| CTGCTCAA | -0.161 |
| AACCATAG | -0.00721 |
| ACTGTGAC | 0.26 |
| GGCAAGCA | -0.224 |
| GGCTTAGA | -0.384 |
| AACTCCAG | -0.144 |
| CTGGGACC | -0.128 |
| CCGCGATC | 0.135 |
| ATTTAAAT | -0.00436 |
| GGATTGCC | -0.157 |

| Sequence | PBM E-score |
| --- | --- |
| ATGACTCG | 0.457 |
| ACACGAGC | 0.0373 |
| ACAATCCA | 0.123 |
| AACTTAGC | -0.266 |
| AGATAAAG | -0.122 |
| CATTCGCG | 0.279 |
| CGACGGGC | 0.133 |
| CTAACGGC | -0.0696 |
| CAAGCATG | 0.0615 |
| CAATTCAA | -0.0723 |
| ACCTTAAT | -0.0922 |
| AATCGGGC | -0.0767 |
| AGTGACGG | 0.00494 |
| ACTTTGCC | -0.0785 |
| AGAGAAAA | -0.184 |
| ATTGGACG | -0.3 |
| GTATATAA | 0.173 |
| GTCAGTGA | 0.231 |
| TCCGATCA | 0.0717 |
| ACATATAT | 0.185 |
| ACGACGGC | -0.0346 |
| CACTACGG | 0.0045 |
| AGTGTTTA | 0.0268 |
| CAGCTGCC | -0.16 |
| AGCCAAGA | -0.0975 |

| Sequence | PBM E-score |
| --- | --- |
| CCCTTTGC | 0.0471 |
| ATTTCGGC | 0.0568 |
| AGCGGACA | -0.0639 |
| ACATAAAC | 0.0679 |
| AATAAACC | 0.119 |
| ATTAACGC | -0.0525 |
| TCGCCAGA | 0.0899 |
| AGACAGCA | -0.0562 |
| CATACTCG | 0.18 |
| ACCGAAAG | -0.215 |
| AAGTGTTA | -0.166 |
| TACTACAA | 0.132 |
| ACGTGATA | -0.2 |
| AAAAAAGA | -0.112 |
| CTACTCGA | 0.0342 |
| TCACCGAA | 0.155 |
| AATTAGCA | -0.0883 |
| CTAGTACC | -0.0145 |
| GTAGGATA | -0.0158 |
| ACGAGAAG | -0.192 |
| AATCCACG | -0.16 |
| ATGAAGTC | -0.042 |
| TAAGCATA | 0.00077 |
| CAGTCCAA | 0.0262 |
| ACACGAGA | 0.138 |

| Sequence | PBM E-score |
| --- | --- |
| ATGGGCCA | -0.126 |
| AATATAAC | 0.0204 |
| AAATGGTT | 0.0383 |
| CGCCCGAC | 0.342 |
| ATAAGCAG | -0.0155 |
| ACCCGGGC | 0.126 |
| CGTACGGA | 0.0927 |
| ACTATACC | 0.209 |
| CCTAGAGG | -0.177 |
| GTTGACCA | -0.0493 |
| AAGTTACT | 0.121 |
| TGTTCTAA | -0.0387 |
| AACGGGAC | -0.178 |
| CACCCCGA | 0.236 |
| GCACGTCC | -0.0222 |
| ATCCTCGC | 0.0808 |
| CGCGCGCA | 0.259 |
| GGTGTCTA | 0.166 |
| AGGGTAGC | -0.121 |
| GGGTGAAA | -0.0775 |
| AGATTAAG | -0.0357 |
| AGTCGACG | 0.278 |
| ATTAACTC | 0.139 |
| GCCGTGAA | 0.0374 |
| TGGCGCAA | -0.119 |

| Sequence | PBM E-score |
| --- | --- |
| AGAGCACC | -0.149 |
| TCAATACA | 0.147 |
| AATGAAAG | -0.125 |
| AAGAGTCA | 0.422 |
| AGCGAGTG | 0.192 |
| GTGTGCTA | 0.165 |
| ATAACACC | 0.21 |
| CATGCGTC | 0.148 |
| ATATCTCG | -0.224 |
| AGCCGAGC | -0.0786 |
| GAGCGAAC | -0.0181 |
| CGGTATGA | 0.174 |
| GAGCGTCA | -0.155 |
| CAAAAAAA | -0.0604 |
| CATCAGCG | 0.0603 |
| TATATGGA | 0.175 |
| ACGTGTTC | -0.219 |
| TACGCTAA | -0.011 |
| AGTTCCAC | -0.0718 |
| ATCCAAAC | 0.132 |
| CGGCGCGC | 0.223 |
| AACCAGCC | 0.0858 |
| AGATTCAC | 0.097 |
| CCAAGTGG | -0.0343 |
| GTATTGCA | -0.136 |

| Sequence | PBM E-score |
| --- | --- |
| TATATTCA | 0.0779 |
| TCTGTGAA | -0.077 |
| CCCGATAA | 0.00419 |
| CAGTTATA | 0.113 |
| TAGTACCA | 0.0581 |
| CGCTCGGA | 0.00307 |
| AACCCCTC | -0.0573 |
| CCGTAGAC | -0.157 |
| ACCTTCCT | -0.183 |
| CAATAACG | -0.137 |
| CCCTCTAA | -0.231 |
| CAACTCGC | 0.163 |
| ATAGCGAA | -0.0348 |
| GTCACAGA | 0.157 |
| CACGTACG | -0.124 |
| TGAGAGAA | -0.119 |
| AGACGGTC | -0.166 |
| CTTATTTA | -0.201 |
| TAGGCCGA | -0.262 |
| CTGTTTTA | -0.137 |
| CAACATGC | 0.15 |
| CGAGTGGA | -0.0131 |

From the supplement of paper PMC3334620
